In the supplement of paper PMC8948288:
The sequences are guide strands of siRNAs; only the seed at positions 2 to 7 varies.

How the values were obtained:
GL261 = test: cell viability relative to siNT1 (ATP content); H4 human neuroglioma and GL261 mouse glioma; higher = less toxic; conditions: siRNA concentration 25 nM; 96 h; mouse
H4 = test: as above; conditions: siRNA concentration 10 nM; 96 h; human
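Further: cells reverse transfected with siRNA duplexes via lipid reagent, ATP read by luminescence, triplicate wells, values scaled to mean viability with non-targeting control siNT1.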

Sequence	cell viability (GL261) [%]	cell viability (H4) [%]
UUGGCCCACAUGUAAACCA	51.4	50.6
UUGGCCGACAUGUAAACCA	76.8	54.6
UUGGCCUACAUGUAAACCA	71.4	45.4
UUGGCGAACAUGUAAACCA	47	93.3
UUGGCGCACAUGUAAACCA	61.2	78.1
UUGGCGGACAUGUAAACCA	38.4	17.5
UUGGCGUACAUGUAAACCA	38.5	71.7
UUGGCUAACAUGUAAACCA	36.1	95.2
UUGGCUCACAUGUAAACCA	26.3	67.3
UUGGCUGACAUGUAAACCA	57.2	89
UUGGCUUACAUGUAAACCA	64.5	100
UUGGGAAACAUGUAAACCA	38.3	93.2
UUGGGACACAUGUAAACCA	31.5	55.5
UUGGGAGACAUGUAAACCA	26	59.9
UUGGGAUACAUGUAAACCA	24.8	62.4
UUGGGCAACAUGUAAACCA	49	80
UUGGGCCACAUGUAAACCA	31.2	28.3
UUGGGCGACAUGUAAACCA	27.5	31.6
UUGGGCUACAUGUAAACCA	20	24.1
UUGGGGAACAUGUAAACCA	47.2	33.7
UUGGGGCACAUGUAAACCA	13.6	29.6
UUGGGGGACAUGUAAACCA	9.7	6.92
UUGGGGUACAUGUAAACCA	29.2	29.6

Sequence	cell viability (GL261) [%]	cell viability (H4) [%]
UUGGGUAACAUGUAAACCA	39.9	76.3
UUGGGUCACAUGUAAACCA	10.3	54.2
UUGGGUGACAUGUAAACCA	29.7	19.6
UUGGGUUACAUGUAAACCA	52.2	60.2
UUGGUAAACAUGUAAACCA	53.1	76.2
UUGGUACACAUGUAAACCA	32.8	57.8
UUGGUAGACAUGUAAACCA	35.2	42.2
UUGGUAUACAUGUAAACCA	50.1	57.3
UUGGUCAACAUGUAAACCA	28.9	62.4
UUGGUCCACAUGUAAACCA	48.4	52.8
UUGGUCGACAUGUAAACCA	27	75.3
UUGGUCUACAUGUAAACCA	47.7	52.7
UUGGUGAACAUGUAAACCA	30.7	99.1
UUGGUGCACAUGUAAACCA	43.8	50.5
UUGGUGGACAUGUAAACCA	33	19
UUGGUGUACAUGUAAACCA	30.6	90.6
UUGGUUAACAUGUAAACCA	56	105
UUGGUUCACAUGUAAACCA	86.1	78.1
UUGGUUGACAUGUAAACCA	66.3	113
UUGGUUUACAUGUAAACCA	56.8	108
UUGUAAAACAUGUAAACCA	71.8	69.6
UUGUAACACAUGUAAACCA	51.4	72.9
UUGUAAGACAUGUAAACCA	51.3	96.5

Sequence	cell viability (GL261) [%]	cell viability (H4) [%]
UUGUAAUACAUGUAAACCA	45.8	61.7
UUGUACAACAUGUAAACCA	54.4	94.1
UUGUACCACAUGUAAACCA	32.9	58.9
UUGUACGACAUGUAAACCA	63	101
UUGUACUACAUGUAAACCA	45.8	60.7
UUGUAGAACAUGUAAACCA	35.4	71.9
UUGUAGCACAUGUAAACCA	52.5	47.9
UUGUAGGACAUGUAAACCA	20	45.3
UUGUAGUACAUGUAAACCA	16.9	9.47
UUGUAUAACAUGUAAACCA	55	82.2
UUGUAUCACAUGUAAACCA	34.9	34.7
UUGUAUGACAUGUAAACCA	39	94.9
UUGUAUUACAUGUAAACCA	52.7	49.4
UUGUCAAACAUGUAAACCA	54.5	89.5
UUGUCACACAUGUAAACCA	52.5	36.2
UUGUCAGACAUGUAAACCA	61.3	73.8
UUGUCAUACAUGUAAACCA	39.7	66.6
UUGUCCAACAUGUAAACCA	56.7	70.4
UUGUCCCACAUGUAAACCA	26.7	30.3
UUGUCCGACAUGUAAACCA	33.8	62.3
UUGUCCUACAUGUAAACCA	33.4	56.2
UUGUCGAACAUGUAAACCA	53.1	75.1
UUGUCGCACAUGUAAACCA	37.4	69.8

Sequence	cell viability (GL261) [%]	cell viability (H4) [%]
UUGUCGGACAUGUAAACCA	32.5	47.1
UUGUCGUACAUGUAAACCA	33.7	74
UUGUCUAACAUGUAAACCA	67	71.1
UUGUCUCACAUGUAAACCA	21.6	78.9
UUGUCUGACAUGUAAACCA	60.9	73.7
UUGUCUUACAUGUAAACCA	53.7	72.3
UUGUGAAACAUGUAAACCA	40.3	57.8
UUGUGACACAUGUAAACCA	15.5	42.9
UUGUGAGACAUGUAAACCA	15.9	55.7
UUGUGAUACAUGUAAACCA	32	48.5
UUGUGCAACAUGUAAACCA	27.7	75.8
UUGUGCCACAUGUAAACCA	48.5	69.6
UUGUGCGACAUGUAAACCA	28.7	70.3
UUGUGCUACAUGUAAACCA	28.3	90.3
UUGUGGAACAUGUAAACCA	46.6	49.6
UUGUGGCACAUGUAAACCA	25	47.2
UUGUGGGACAUGUAAACCA	25.7	66.4
UUGUGGUACAUGUAAACCA	26.9	36.2
UUGUGUAACAUGUAAACCA	37.2	89.8
UUGUGUCACAUGUAAACCA	19.8	52.3
UUGUGUGACAUGUAAACCA	33.9	56.3
